Self-cleavage data for 34 variants are collected here from the RNAGym collection of RNA variant scans (doi:10.1093/nar/gkz1192).

B1: CPEB3 Ribozyme (parent)
chain: UAACAGGGGGCCACAGCAGAAGCGUUCACGUCGCAGCCCCUGUCAGAUUCUGGUGAAUCUGCGAAUUCUGCUGUAUAUCUC

The source gives no read counts; variants with many changes may rest on few reads.

Variants of B1 are the subject of the series. The series can be described thus: self-cleavage, relative activity (ratio to wild type); higher = more cleavage; in vitro, sequencing. The gist of the method: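 Relative activity compares each variant's cleaved/total read fraction with that of the unmutated ribozyme. To get these fractions, barcoded CPEB3 ribozyme libraries from rounds of error-prone PCR were transcribed with T7 RNA polymerase for 5 hours at 37°C and then given 15 min of DNase I treatment before EDTA was added. The RNAs were reverse transcribed with template switching and sequenced on Illumina, and DNA sequencing linked barcodes to variants. A minimum of 5 reads applied, and three batches were averaged.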
Regarding UAACAGGGGGCCACAGCAGAAGCGUUCACGUCGCUGCCCUUGUCAGAUUCUGGUGAAUCUGCGAAUCCUGCUGUAUAUCUC, the self-cleavage was 0.08.
The result for UAACAGGGGGCCACAGCAGAAGCGUUCACGUCGCUGCCCCUGUCGGAUUCUGGUGAAUCUGCGAAUUCUGCUGUAUAUCCC reads 0.3.
The figure for UAACAGGGGGCCACAGCAGAAGCGUUCACGUCGCUGCCCCCGACGGAUUCUGGUGAAUCUGCGAAUUCUGCCGCAUAUCUC is 0.27.
The result for UAACAGGGGGCCACAGCAGAAGCGUUCACGUCGCGGCCCCUGUCAGAUUCUGGUGAACCUGCGGACUCUGCUGAAUAUCUC reads 0.64; that for UAACAGGGGGCCACAGCAGAAGCGUUCACGUCGCUGUCCCUGUCAGACUCUGGUGAAUCUGCGAAUUCUGCUGUAUAUCUC, 0.17.
UAACAGGGGGCCACAGCAGAAGCGUUCACGUCGCUGCCCCUGCCGGAUUCAGGUGAAUCUGCGAAUUCUGCUGUAUAUCUC: the self-cleavage was found to be 0.23.
The result for UAACAGGGGGCCACAGCAGAAGCGUUCACGUCGCGGCCCCUGUCAGAUUCUGGUGAAUCUGCGAAUUCUGCUGAAUAACUC reads 1.3.
The result for UAACAGGGGGCCACAGCAGAAGCGUUCACGUCGCUGCCCCUGUCGGAUUCUGGUGCUUCUGCGAAUUCUGCUGUAUAUCCC reads 0.12; that for UAACAGGGGGCCACAGCAGAAGCGUUCACGUCGCUGCCCCUGUCUGAAUCUGGUGAAUCUGCGGAUUCUGCUGUUUAUCUC, 0.02; that for UAACAGGGGGCCACAGCAGAAGCGUUCACGUCGCUGCCCCCGUCAGAUUCCGGUGAAUCUGCGAAUUCUGCUGUAUAUCUC, 0.39.
The figure for UAACAGGGGGCCACAGCAGAAGCGUUCACGUCGCUGCCCCUGACAGAUUCUGGUGAGUCUGCGAAUUCUGCUGUAUAUCUC is 0.35; for UAACAGGGGGCCACAGCAGAAGCGUUCACGUCGCUGCCCCUGUCAGGUUCAGGUGAAUCUGCGAAUUCUGCUGUAUAUCUC it is 0.52.
In the case of UAACAGGGGGCCACAGCAGAAGCGUUCACGUCGCUGCCCGUGUCAGAUUCUGGUGAAUCUGCGAAUCCUGCUGUAUAUCUC, the self-cleavage was 0.12.
The figure for UAACAGGGGGCCACAGCAGAAGCGUUCACGUCGCUGCCCCUGUCGGAUCCUGGUGAAUCUGCGAAUUCUGCCGUAUAUCUC is 0.1; for UAACAGGGGGCCACAGCAGAAGCGUUCACGUCGCUGCCCCUGUCAGAUUCUAGUGAAUCUGCGAAUUCUGCCGUAUAUCUC it is 0.85; for UAACAGGGGGCCACAGCAGAAGCGUUCACGUCGCUGCCCCUGACAGAUUCUGGUGAAUCUGCGAAUUCCGCUGCAUAUCUC it is 0.24.
The result for UAACAGGGGGCCACAGCAGAAGCGUUCACGUCGCUGCCCAUGUCAGAUUCUGGUGAAUCUGCGAAUUCUGCUGUAUACCUC reads 0.15; that for UAACAGGGGGCCACAGCAGAAGCGUUCACGUCGCUGUCCCUGCCAGAUUCUGGCGAAUCUGCGAAUUCUGCUGUAUAUCUC, 0.08.
The result for UAACAGGGGGCCACAGCAGAAGCGUUCACGUCGCUGCCCCUGUCAGAUUCUGGUGAAUCUGUGAACUCUGCUGUAUAUCUC reads 0.26; that for UAACAGGGGGCCACAGCAGAAGCGUUCACGUCGCUGCCCCUGUCAGAUUCUGAUGAAUAUGCGAAUUCUGCUGUAUAUCUC, 0.14; that for UAACAGGGGGCCACAGCAGAAGCGUUCACGUCGCUGACCCUGUCAGAUUCUGGUGAAUCUGCGAAUUCCGCUGUAUAACUC, 0.08.
UAACAGGGGGCCACAGCAGAAGCGUUCACGUCGCUGCCCCGGUCAGAUUCUGGUGAAUCUGCGAAUUCUGCUGCAUAUCUC: the self-cleavage was determined as 0.64.
UAACAGGGGGCCACAGCAGAAGCGUUCACGUCGCUGCCCUUGUGAGAUUCUGGUGAAUCUGCGAAUCCUGCUGUAUAUGUC: the self-cleavage was 0.12.
The result for UAACAGGGGGCCACAGCAGAAGCGUUCACGUCGCUGCCGCUGUCAGAUUUUGGUGAAUCUGCGAACUCUGCUGUAUAUCUC reads 0.06; that for UAACAGGGGGCCACAGCAGAAGCGUUCACGUCGCUGCCCCUGUCAGAUUCUGGUGAAUCUGCGAAUUCUGCUCUAUACCUC, 1.02; that for UAACAGGGGGCCACAGCAGAAGCGUUCACGUCGCUGCCCCUGUCAGAUUCUGGUGAAUCUGCGUAUUCUGGUGUAUAUCUC, 0.12.
The result for UAACAGGGGGCCACAGCAGAAGCGUUCACGUCGCGGCCCCUGUCAGAUUCUGGUGAAACUGCGAAUUCUGCUGAAUAUCUC reads 1.35; that for UAACAGGGGGCCACAGCAGAAGCGUUCACGUCGCGGCCCCUGUCAGAUUCUGGUGAAUCAGCGAAUUCUGCUGUCUAUCCC, 1.24; that for UAACAGGGGGCCACAGCAGAAGCGUUCACGUCGCGGCCCCUGUCAGAUUCUGGUGAACCUGCGAAUUCCGCUGUAUAUCUC, 0.82.
The figure for UAACAGGGGGCCACAGCAGAAGCGUUCACGUCGCUCCCCCUGUCAGGUCCUGGUGAAUCUGCGAAUUCUGCUGUAUAUCUC is 0.22; for UAACAGGGGGCCACAGCAGAAGCGUUCACGUCGCUGCCACUGUCAGAUUCUGGUGAAUCUGCGAGUUCUGCUGCAUAUCUC it is 0.13; for UAACAGGGGGCCACAGCAGAAGCGUUCACGUCGCUGCCCCUGUCUGAUUCUGGUGAAUCUGCGAAAUCUGCUGUAUAUCUC it is 0.11.
With UAACAGGGGGCCACAGCAGAAGCGUUCACGUCGCUGCCCCUGUCGGAUUCUGGUGAAUCCGUGAAUUCUGCUGUAUAUCUC, the self-cleavage stood at 0.12.
The figure for UAACAGGGGGCCACAGCAGAAGCGUUCACGUCGCUGCCCCUGAUAGUUUCUGGUGAAUCUGCGAAUUCUGCUGUAUAUCUC is 0.02.
